# The campaign covered roughly 340,000 compounds. About 6,900 (2%) were called active. No stated cut-off is given here; in the data, active means inhibition above about 30%; inactive means below that, where a call was filed. The list shows a part of the results, in another mix than the full data. Where no call is shown, the source filed none.
# Target: D(2) dopamine receptor (Homo sapiens) (UniProt P14416)
# Experiment: HTS Assay for Allosteric Antagonists of the Human D2 Dopamine Receptor: Primary Screen for Antagonists; further: 0% is about no effect
# Details: HEK293 TREx D2 cells, calcium flux, dopamine EC80; at 10 µM; stronger effect = higher value
# Summary of the method: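 Calcium flux kinetic readout in an inducible HEK293 TREx D2 line plated overnight at 30 C. After 180 s compound exposure, an EC80 dopamine challenge follows with another 180 s kinetic read to detect antagonism.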
# UniProt P14416, sequence (P14416 whole entry, looked up): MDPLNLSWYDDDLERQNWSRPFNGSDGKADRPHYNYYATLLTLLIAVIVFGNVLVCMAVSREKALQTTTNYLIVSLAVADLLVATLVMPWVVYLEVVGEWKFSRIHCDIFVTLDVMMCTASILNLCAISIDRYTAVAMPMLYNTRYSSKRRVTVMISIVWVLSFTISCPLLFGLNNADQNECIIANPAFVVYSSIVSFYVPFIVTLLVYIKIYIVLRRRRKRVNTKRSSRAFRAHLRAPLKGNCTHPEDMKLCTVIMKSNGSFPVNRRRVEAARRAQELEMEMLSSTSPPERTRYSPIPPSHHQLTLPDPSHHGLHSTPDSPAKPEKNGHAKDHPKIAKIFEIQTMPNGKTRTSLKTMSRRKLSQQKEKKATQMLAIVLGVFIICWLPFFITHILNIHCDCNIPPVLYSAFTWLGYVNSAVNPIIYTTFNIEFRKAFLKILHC
row,SMILES,inhibition
1,Fc1ccc(C2=CC(c3ccc(F)cc3)n3c(nc4ccccc43)N2)cc1 (stereo not given),0.305%
2,Cc1cc(-n2c(C)nc3ccccc3c2=O)ccc1NC(=O)C(F)(F)F,-27.4%
3,CC(CNC(=O)c1ccc2nc(Cc3ccccc3)oc2c1)c1ccccc1 (stereo not given),12.4%
4,COc1ccc(S(=O)(=O)N(C)C)cc1NC(=O)c1ccc2c(c1)NC(=O)C(C)S2 (stereo not given),active: 76.6%
5,Cc1cccc(CCN2C(Nc3ccccc3)=NC[C@@H]2CC(C)C)c1,active: 69.9%
6,CCn1cc(C(=O)NCc2ccc(Cl)cc2)c(=O)c2cc(S(=O)(=O)N(C)C3CCCCC3)ccc21,13.9%
7,CC(C)(C)c1ccc(OCc2nnc(-c3ccccc3)o2)cc1,6.27%
8,COc1ccccc1-c1ccc(SCC(=O)NCCc2ccccc2)nn1,active: 48.4%
9,O=C(CSc1nnc(-c2ccc(F)cc2)o1)N1CCCc2ccccc21,7.34%
10,Cc1ccc(CSc2nnc3[nH]c(=O)cc(-c4ccccc4)n23)cc1,1.85%
11,O=C(CCC1N=C2c3ccccc3N=C(SCc3ccc(Cl)cc3)N2C1=O)N1CCN(c2ccccc2)CC1 (stereo not given),9.92%
12,COc1ccc(C2C=C(c3ccc(Cl)c(Cl)c3)Nc3ncnn32)cc1 (stereo not given),-18.5%
13,COc1ccc(N2CCN(CCCNC(=O)Nc3ccccc3)CC2)cc1,-6.14%
14,COC(=O)c1sccc1S(=O)(=O)N(CC(=O)NCc1ccc(C)cc1)c1ccc(C)cc1,12.3%
15,Fc1ccc(-c2nc(Nc3cccc(C(F)(F)F)c3)nc3c2COc2ccccc2-3)cc1,-11.7%
16,COc1ccc(-n2c(SCC(=O)NCc3ccc(C)cc3)nc3n[nH]c(C)c3c2=N)cc1,-1.97%
17,COc1ccc(-c2nc3c(c(SCC(=O)N4CCCCC4)n2)Cc2cc(Cl)ccc2O3)cc1,-0.462%
18,CN(C)c1ccc(CNC(=O)Cn2c(=O)oc3cc(S(=O)(=O)N4CCCCCC4)ccc32)cc1,-8.07%
19,Cc1ccc(NC(=O)Cc2coc3ccc(C(C)C)cc23)cc1Cl,1.43%
20,CCCCCC(C)NC(=O)c1ccoc1C (stereo not given),active: 40.3%
21,COc1ccc(-n2c(=O)[nH]c3cc(C(=O)NCCc4ccccc4)ccc3c2=O)cc1OC,22.5%
22,CCCS(=O)(=O)c1nc(S(=O)(=O)c2ccc(C)cc2)c(NC)s1,-1.38%
23,Cc1ccc(-n2ncc(C(=O)N3CCCCC3)c2C2CCN(C(=O)OC(C)(C)C)CC2)c(C)c1,2.18%
24,O=C(COc1ccccc1)Nc1ccc2nc(SCC(=O)N3CCOCC3)sc2c1,-10%

row,SMILES,inhibition
1,CCOC(=O)c1c(NC(=O)c2ccc(OC)cc2)sc2c1CCCCC2,-12.3%
2,O=C(NCc1ccccc1)Nc1cccn(Cc2ccccc2Cl)c1=O,active: 33.2%
3,COc1ccc(NC(=O)c2oc3ccccc3c2NC(=O)COc2ccc(C(C)C)cc2)c(OC)c1,3.29%
4,COc1cc(OC)cc(-c2c(-c3cccs3)c3cc(-c4ccc(SC)cc4)ccc3n2C)c1,active: 57.7%
5,O=C(Nc1ccccc1Cl)c1sc2cccc(Cl)c2c1Cl,-4.26%
6,Cc1ccc(N(CC(=O)Nc2ccc(Cl)cc2)S(=O)(=O)c2cccc3nonc23)cc1,-8%
7,CCOc1cc(CNC(=O)CN2CCSc3ccccc32)cc(OCC)c1OCC,23%
8,COc1cccc(NC(=O)Cn2c(=O)n(Cc3ccccc3)c(=O)c3ccccc32)c1,1.07%
9,CN1C(C(=O)Nc2ccc(OC(F)(F)F)cc2)=CC(c2cccs2)=NS1(=O)=O,-7.57%
10,CCSc1nc2n(n1)C(c1ccc(C(=O)O)cc1)C(C(=O)Nc1ccccc1C)=C(C)N2 (stereo not given),3.54%
11,CCCSc1nc2c([nH]c3ccccc32)c(=O)n1C,16.9%
12,O=C(NCc1cccnc1)c1nn(-c2ccc(F)cc2)nc1CO,-21.4%
13,CCCCNC(=O)C1CCN(S(=O)(=O)c2c(C)noc2/C=C\c2ccc(OC)cc2)CC1,active: 39.6%
14,Cc1ccc(Cl)cc1N1CCN(S(=O)(=O)c2ccc3c(c2)CCN3C(=O)C2CCC2)CC1,12.6%
15,COc1ccccc1CNC(=O)CSC1=Nc2ccccc2N=C(c2ccc(F)cc2)C1,-14.9%
16,CCc1ccc(NS(=O)(=O)c2ccc3[nH]cc(C(=O)NCCCOC(C)C)c(=O)c3c2)cc1,-7.06%
17,CC(C)c1nc2ccc(C(=O)Nc3ccccc3F)cc2o1,5.61%
18,Cc1ccc(C)c(N2CCN(CCCNC(=O)Cn3cccc3C(=O)c3ccccc3)CC2)c1,active: 41%
19,Cc1ccc(NC(=O)c2cnn3c2NC(c2ccccc2)=CC3c2ccccc2)cc1 (stereo not given),10.8%
20,CCC(Sc1nnc(C)n2c1cc1occc12)C(=O)Nc1ccccc1OC (stereo not given),3.3%
21,CCN(Cc1ccccc1)C(=O)c1cnn(-c2ccc(F)cc2)c1-n1cccc1,-13.4%
22,CC(=O)c1ccc(NC(=O)Cn2nc(N3CCN(c4ccccc4)CC3)ccc2=O)cc1,-11.4%
23,COc1ccccc1OC(C)C(=O)Nc1cccc(-c2nc3ccccc3o2)c1 (stereo not given),13%
24,Nc1nc(CN2CCN(c3ccccn3)CC2)nc(Nc2ccc(Cl)cc2)n1,active: 73.8%

row,SMILES,inhibition
1,CC(=O)c1sc(N2C(=O)c3oc4ccccc4c(=O)c3C2c2ccc(C)cc2)nc1C (stereo not given),8.27%
2,O=C(Cn1c(=O)nc(-c2ccccc2)c2cc(Cl)ccc21)Nc1ccc(F)c(Cl)c1,-2.45%
3,COc1cccc(CNC(=O)c2ccc(-n3c(C)cc4c3CCC(C)C4)cc2)c1 (stereo not given),-16.3%
4,CCOc1cc(C#N)c(NC(=O)Cn2nnc(-c3ccc(C)cc3)n2)cc1OCC,0.917%
5,CC(C)NC(=O)c1ccc(NC(=O)N2CCCCc3ccccc32)cc1,17.7%
6,CCCn1c2ccccc2c2cnn(CC(=O)N3CCN(c4ccccc4)CC3)c(=O)c21,17.3%
7,Cc1cccc(CSc2ncc(Cl)c(C(=O)Nc3nc4ccc(F)cc4s3)n2)c1,-18.1%
8,CC(=O)N1c2ccc(S(=O)(=O)N(C)CC(=O)N(C)Cc3ccccc3)cc2CC1C (stereo not given),active: 36.2%
9,Cc1ccc2nc3c(cc(C#N)c(=O)n3-c3nnc(SCc4ccccc4)s3)c(=O)n2c1,-5.89%
10,COc1cc(NC(=O)Cn2cc(C(=O)c3ccc(F)cc3)c(=O)c3ccc(C)nc32)cc(OC)c1,7.41%
11,CCOc1ccc(NC(=O)c2ncoc2-c2ccco2)cc1,7.5%
12,CCOc1ccc(-c2nc3c(c(SCC(=O)N4CCCCC4)n2)Cc2cccc(OC)c2O3)cc1,9.61%
13,COc1ccccc1NS(=O)(=O)c1ccc(NN=C2CCCC2)c([N+](=O)[O-])c1,active: 34.4%
14,CCCCN1C(=O)C(O)(CC(=O)c2ccc(C(C)(C)C)cc2)c2ccccc21 (stereo not given),-7.72%
15,Cc1ccc(-c2cc(C(=O)NCc3ccccc3Cl)c3ccccc3n2)cc1C,6.07%
16,COc1ccc2cc3c(N)nn(C(=O)c4ccc(OC)c(OC)c4)c3nc2c1,-14.4%
17,O=C(Nc1ccccc1C(F)(F)F)n1ncc2cc(Cl)ccc21,-13.3%
18,CCOC(=O)c1[nH]c2ccccc2c1NC(=O)c1ccc(Br)cc1,-8.97%
19,COc1cccc(CNC(=O)C2CCN(S(=O)(=O)c3ccc4c(c3)CCCN4C(C)=O)CC2)c1,2.98%
20,Cc1ccc2c(c1)N(CCCC(=O)Nc1cccc(C(F)(F)F)c1)C(=O)CO2,8.14%
21,CCc1ccc(NC(=O)Cn2c(=O)n(CCCCC(=O)NCCc3ccc(Cl)cc3)c(=O)c3ccccc32)cc1,-8.02%
22,Cc1ccc2ncc(C(=O)Nc3ccc(OC(F)(F)F)cc3)c(=O)n2c1,25.5%
23,CCOC(=O)c1c(NC(=O)c2nc(S(C)(=O)=O)ncc2Cl)sc(C(C)=O)c1C,-17.7%
24,O=c1[nH]c2ccc(NCc3ccc(-c4ccc(Br)cc4)o3)cc2[nH]1,5.75%

row,SMILES,inhibition
1,O=C1CCCc2cc(S(=O)(=O)N3CCCC(C(=O)NCc4ccc(Cl)cc4)C3)ccc2N1 (stereo not given),-4.94%
2,COc1cc(OC)cc(-c2nc(-c3ccc4c(c3)[nH]c(=O)n4C)no2)c1,2.79%
3,Cc1ccccc1-c1nnn(CC(=O)Nc2sc3c(c2C#N)CCC(C(C)(C)C)C3)n1 (stereo not given),-1.07%
4,COC(=O)c1cc(NC(=O)Cc2cc(OC)c(OC)c(OC)c2)cc(C(=O)OC)c1,active: 40.3%
5,COc1cccc(C2CC(=O)Nc3c2c(=O)[nH]c2nc4ccccc4n32)c1 (stereo not given),-21%
6,COc1ccc(C(=O)NCC(c2ccc3c(c2)OCO3)N2CCN(c3ccccc3F)CC2)cc1 (stereo not given),25.5%
7,Cc1cc(-c2ccc(C(C)C)c(S(=O)(=O)Nc3ccccn3)c2)on1,active: 31.2%
8,O=C(COc1ccc([N+](=O)[O-])cc1)Nc1nc2c(s1)CCCC2,14.7%
9,O=C(NCC(c1ccc(Cl)cc1)N1CCOCC1)c1ccccc1F (stereo not given),9.32%
10,CCOc1ccc(-c2nnc(SCC(=O)Nc3cccc(OC)c3)nc2-c2ccc(OCC)cc2)cc1,-16.2%
11,CSc1nc(Nc2ccc(F)cc2)cc(-c2ccccc2)n1,-5.99%
12,CCOc1ccc(-c2nn(-c3ccccc3)cc2C2NC(=O)NC(C)=C2C(=O)OC(C)C)cc1 (stereo not given),-16.4%
13,CCCCOc1ccc(C(=O)Nc2ccc(-c3cc4ccccc4oc3=O)cc2)cc1,-4.22%
14,CC(C)(C)OC(=O)N1CCC(c2c(C(=O)NCCN3CCc4ccccc4C3)cnn2-c2ccc(F)cc2)CC1,5.33%
15,Cc1ccc(CNC(=O)Nc2cc(C(=O)NCc3ccc(C(C)C)cc3)ccc2N2CCCC2)cc1,10.6%
16,CC(C)c1ccc(OCC(=O)NCCS(=O)(=O)N2CCN(c3ccc(F)cc3)CC2)cc1,-11.1%
17,Cc1c(Cl)cccc1NC(=O)c1ccc2c(c1)CCCN2S(C)(=O)=O,1.16%
18,CCn1c(=O)cc(SCC(=O)NCc2cccc(Cl)c2)c2ccccc21,-1.3%
19,COc1ccc(Cn2c(C(=O)O)c(CNC3CCCC3)c3ccc(OC)cc32)cc1,4.4%
20,COc1ccccc1C(=O)N1c2ncnn2C2(CCCCC2)[C@@H]2CCCC[C@@H]21,0.248%
21,CCOC(=O)c1ccc(NC(=O)C(CC)Sc2nc3ccncc3[nH]2)cc1 (stereo not given),11.6%
22,Cc1cc(C)cc(-n2c(C)cc(C(=O)C(=O)Nc3ccccc3F)c2C)c1,-1.59%
23,Cc1ccccc1CN1C(=O)c2ccccc2S(=O)c2ccc(C(=O)NCc3ccc(Cl)cc3)cc21 (stereo not given),3.73%
